For this series, the system named is RGC somata and axons, mouse SOHU glaucoma model. The note with it: 3wpi.

Turning to `CNCCCC12CCC(c3ccccc31)c1ccccc12` [maprotiline], under “SOHU mouse”, the “axon protection by TEM analysis of ON cross sections and CTB tracing in wholemount ONs” value is on record as “confirmed the axon protection effect”. Also, under “SOHU mouse, retina wholemounts, vs DMSO”, the RGC soma survival entry was “significantly greater”. Also, the “GCC thickness by OCT” value (SOHU mouse, retrobulbar 50 μl of 2 mM day 0 and 10 + i.p. 15 mg/kg daily, vs DMSO) is “significantly increased”. The axon survival result (SOHU mouse, semi-thin ON sections, vs DMSO) is recorded as “significantly greater”. Under “naïve mice”, the “normal IOP” value is on record as “did not affect”.

For the origin of these results see patent publication US20250295610A1, “NEUROPROTECTIVE AGENTS FOR USE IN THE TREATMENT OF OPTIC NEUROPATHIES” (The Board of Trustees of the Leland Stanford Junior …, priority 2021, published 2025).
